Results: the RNAGym collection of RNA variant scans (doi:10.1093/nar/gkz1192)
Read counts are not given, so values of variants with three or more changes are uncertain.

B1: CPEB3 Ribozyme (parent)
chain: UAACAGGGGGCCACAGCAGAAGCGUUCACGUCGCAGCCCCUGUCAGAUUCUGGUGAAUCUGCGAAUUCUGCUGUAUAUCUC

Variants of: B1
Experiment: self-cleavage, relative activity (ratio to wild type); higher = more cleavage; in vitro, sequencing
Method in brief: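 Barcoded CPEB3 ribozyme mutants, produced by rounds of error-prone PCR, self-cleaved while being transcribed with T7 RNA polymerase for 5 hours at 37°C and during a subsequent 15 min DNase I step before EDTA was added. Sequencing of template-switched cDNA on Illumina gave cleaved and total reads, and DNA sequencing assigned barcodes to variants. Each variant's relative activity is its cleaved/total read fraction divided by the unmutated ribozyme's fraction, averaged across three batches. A variant needed a minimum of 5 reads.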

Row | Variant | self-cleavage
1 | A5C U41A U43C U60C | 0.38
2 | A5C U41A U67C | 0.17
3 | A5C U41A U78C | 0.19
4 | A5C U43C U49A A57G U69C | 0.12
5 | A5C U43C U80C | 0.83
6 | A5C U54A U66C | 0.35
7 | A5G A13C A21U U60C | 0.7
8 | A5G A13C A35U U78A | 0.29
9 | A5G A13C A45G U74C | 0.49
10 | A5G A13G A15G A18U U49C U76C | 0.47
11 | A5G A13G A18G A28U A45U U51A U54C | 0.12
12 | A5G A13G A18G U25C | 0.06
13 | A5G A13G A18U A47G C62U A75G | 0.1
14 | A5G A13G A28G A35U A57G U69A A77G | 0.05
15 | A5G A13G A35U | 0.74
16 | A5G A13G A35U C62U | 0.04
17 | A5G A13G A35U U60C A64G C81U | 0.07
18 | A5G A13G A35U U78C | 0.32
19 | A5G A13G C62G A65U | 0.07
20 | A5G A13G U26A C38U U76C | 0.21
21 | A5G A13G U49C | 0.12
22 | A5G A13U A15G A18U A35G U67C C81A | 0.25
23 | A5G A13U A15G U26A A47U A64G G70U | 0.05
24 | A5G A13U A18G A35G A57G U72G U74A | 0.59

Row | Variant | self-cleavage
25 | A5G A13U A28C U31A A45C U67A C68U | 0.25
26 | A5G A13U A45G A57G U72C | 0.18
27 | A5G A13U C50A | 0.8
28 | A5G A13U U25C A28U U49C | 0.31
29 | A5G A13U U31C A64C | 0.19
30 | A5G A13U U43C U60C U69C | 0.28
31 | A5G A13U U48C U67G | 0.27
32 | A5G A15C U41C U69C | 0.35
33 | A5G A15C U51C | 0.31
34 | A5G A15G A18G A20G C50A A65G U72C | 0.08
35 | A5G A15G A18G G46A G52A C62G | 0.3
36 | A5G A15G A20U U43C U76C | 0.42
37 | A5G A15G A28G U41A U51A U69C | 0.09
38 | A5G A15G A28G U54A U78A | 0.13
39 | A5G A15G A35G A57G G73A | 0.88
40 | A5G A15G G16U A18U U26C U43C U78C | 0.17
41 | A5G A15G G52U | 0.53
42 | A5G A15G U26G U69A | 0.17
43 | A5G A15G U41A A45G U66C A77G | 0.75
44 | A5G A15G U43G | 0.25
45 | A5G A15G U51A C59U U72C | 0.42
46 | A5G A15G U54G G73A | 0.57
47 | A5G A15G U72C | 0.87
48 | A5G A15G U74C U80A | 1

Row | Variant | self-cleavage
49 | A5G A15U A28C A35U | 0.38
50 | A5G A15U A35U U49C | 0.27
51 | A5G A15U C44A U76A | 0.64
52 | A5G A18C G33A A75U | 0.13
53 | A5G A18G A20U A28G U43C A45G | 0.68
54 | A5G A18G A28G U66C | 0.41
55 | A5G A18G A35G A64G | 0.56
56 | A5G A18G A35U | 0.5
57 | A5G A18G A35U U69A | 0.25
58 | A5G A18G U25A U66C | 0.44
59 | A5G A18G U25C A65G | 0.09
60 | A5G A18G U31C G61A | 0.09
61 | A5G A18G U41C | 0.32
62 | A5G A18G U58C A64U U67A U72C | 0.17
63 | A5G A18G U60A A75G | 0.3
64 | A5G A18U A20G U54A | 0.17
65 | A5G A18U A28U U41C U49A U60A | 0.09
66 | A5G A18U A47G | 0.49
67 | A5G A18U A57G | 0.31
68 | A5G A18U A64G | 0.41
69 | A5G A18U G33U A35G A45G U54C | 0.27
70 | A5G A18U U31C U67G U76C | 0.24
71 | A5G A18U U43A U60A | 0.16
72 | A5G A18U U43C U48C | 0.2

Row | Variant | self-cleavage
73 | A5G A18U U54C G73U | 0.34
74 | A5G A20C A57G U72G | 0.11
75 | A5G A20G A28U G30A | 0.31
76 | A5G A20G A45G | 0.48
77 | A5G A20G A45G U60A | 0.44
78 | A5G A20G A47G | 0.76
79 | A5G A20G A57U | 0.27
80 | A5G A20G A64G G70U | 0.23
81 | A5G A20G A64G U80C | 0.55
82 | A5G A20G G42A U66C U69A U72C | 0.09
83 | A5G A20G U25C A28U U48C U49A C68U | 0.11
84 | A5G A20G U25C A65G | 0.32
85 | A5G A20G U25C A75G U78C | 0.13
86 | A5G A20G U26A U41C A64G U67C G70C | 0.1
87 | A5G A20G U26C | 0.06
88 | A5G A20G U26C A56G G73A | 1.03
89 | A5G A20G U41G A45G U58C | 0.32
90 | A5G A20G U43A G61C C79G U80A | 0.07
91 | A5G A20G U60C U80C | 0.41
92 | A5G A20U A28G U31A A65G A75G U80A | 0.11
93 | A5G A20U A35G U54A U72G | 0.19
94 | A5G A20U A35U | 0.28
95 | A5G A20U C29U C38U U60A A65G A75U | 0.03
96 | A5G A20U C32U U49A A57G A64U | 0.08

Row | Variant | self-cleavage
97 | A5G A20U U41C U51C | 0.08
98 | A5G A21C U26A G36U U41C | 0.07
99 | A5G A21G A28C U31C C40U C44U | 0.06
100 | A5G A21G A28U G33U A77U | 0.17
101 | A5G A21G A47U A65G A75G | 0.11
102 | A5G A21G A65G | 0.38
103 | A5G A21G A77G | 0.28
104 | A5G A21G C37A | 0.17
105 | A5G A21G C40U C81U | 0.81
106 | A5G A21G C50G G55A | 0.06
107 | A5G A21G G53A U54A | 0.25
108 | A5G A21G U25C | 0.72
109 | A5G A21G U26A G52U A57G | 0.35
110 | A5G A21G U26A U67C | 0.34
111 | A5G A21G U26C G33A U54G U67C | 0.06
112 | A5G A21G U31A A77U | 0.63
113 | A5G A21G U41C U48C A56U | 0.1
114 | A5G A21G U51A A64G U72G | 0.11
115 | A5G A21G U76C | 0.52
116 | A5G A21G U78C | 0.61
117 | A5G A21G U80A | 0.27
118 | A5G A21U A35U U48C U67A | 0.04
119 | A5G A21U C50G U72G U80C | 0.12
120 | A5G A21U U43C | 0.3

Row | Variant | self-cleavage
121 | A5G A28G A35U A65G | 0.06
122 | A5G A28G G36U U58C U60C | 0.06
123 | A5G A28G U31C U72C | 0.71
124 | A5G A28G U41G A64C U66G U67A C71A | 0.05
125 | A5G A28G U48G C68A | 0.29
126 | A5G A28G U54C U67C A77U | 0.13
127 | A5G A28G U58C U66C | 0
128 | A5G A28G U60G | 0.42
129 | A5G A28G U80A | 0.47
130 | A5G A28U A64G | 0.62
131 | A5G A28U C32G U69C | 0.17
132 | A5G A28U U43G U49C | 0.45
133 | A5G A28U U54C U58C G73C | 0.62
134 | A5G A28U U74A | 1.07
135 | A5G A35G A56G | 1.14
136 | A5G A35G A75G | 1.27
137 | A5G A35G A77G | 1.27
138 | A5G A35G U41A U49C U51C | 0.06
139 | A5G A35G U60A A65G | 0.22
140 | A5G A35G U67C | 0.85
141 | A5G A35U A45G G61A A65G | 0.08
142 | A5G A35U A47U | 0.32
143 | A5G A35U A75U U78C | 0.22
144 | A5G A35U C44U | 0.23

Row | Variant | self-cleavage
145 | A5G A35U U41C U78C | 0.12
146 | A5G A35U U60C A65G | 0.2
147 | A5G A45G A56G U78C | 0.39
148 | A5G A45G G52A A64U U66G U72G | 0.09
149 | A5G A45G U49C | 0.39
150 | A5G A45G U69C A75G | 0.51
151 | A5G A45U A47G U66C | 0.29
152 | A5G A45U A56G U58C A75G | 0.07
153 | A5G A47G A57G A77G | 0.3
154 | A5G A47G U48C U80C | 0.09
155 | A5G A56C A65G | 0.28
156 | A5G A56C U58A U72C | 0.17
157 | A5G A56C U72C | 0.53
158 | A5G A56G U60A A64G | 0.1
159 | A5G A56U A57G U60C A64U | 0.08
160 | A5G A56U C59G C62U | 0.15
161 | A5G A56U C62U | 0.12
162 | A5G A57G A64U U69C U80C | 0.08
163 | A5G A57G U78C | 0.25
164 | A5G A64U G73A | 0.64
165 | A5G A65G U66C | 0.12
166 | A5G A65G U67C | 0.24
167 | A5G C11A A18G G46U U54G U67A | 0.05
